According to the supplement of paper PMC11417369:
± gives the standard deviation of the averaged measurements. The list shows a part of the results.

Tested on: PfAP2-LT AP2 domain (GST-tagged)
Experiment: gcPBM binding intensity (ln(normalized median fluorescence intensity)); higher = stronger DNA binding
Procedure, shortened: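 An Agilent 4 × 180k array carrying primer-extended double-stranded 36-bp intergenic genomic probes and negative controls received GST-tagged P. falciparum DNA-binding domains expressed in E. coli, about 25 μg on average, for 1 h. The binding buffer contained 1× PBS, 1% milk, 0.2 mg/ml BSA, 0.5% salmon testes DNA and 0.03% Triton X-100. Binding intensity is the top Masliner-normalised natural-log median intensity across replicate spots of either probe orientation, read after Alexa488 anti-GST antibody staining and a 488 nm scan.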

Row | Sequence | gcPBM binding intensity (ln)
1 | TATTGTATTTAATAAACACACAATATTAAAAATATA [CACACA_site4725] | 8.61 ± 0.42
2 | CATATATACACATACACACACACACGGACACGCACA [CACACA_site6910] | 10.07 ± 0.085
3 | ATACACATATATGTGTGTACTCACCTTTTAATATGA [XGTACX_site4349] | 9.19 ± 0.37
4 | GATTTACAACACGAACGTACAGAACAAAAAGGAAAA [XGTACX_site6501] | 8.88 ± 0.45
5 | GTATCTCATTATTCGTGTACTAAACACATAAAAATA [XGTACX_site2262] | 8.6 ± 0.38
6 | ATCTATATCTATAATACACACTAAAGTAACAGAATA [CACACA_site7370] | 8.8 ± 0.37
7 | TGTTTAAAGGAAAAGGAGTAGTCTATTATATTATCT [CACACA_negctrl_site858] | 8.46 ± 0.4
8 | TATAAAAATAAAAAAAGTACACATAAAAATATATAT [XGTACX_site5189] | 8.86 ± 0.51
9 | AATGTAAAAGTAAACACACACATATATATATACATA [CACACA_site2484] | 9.49 ± 0.38
10 | AACATTTATAAATATTGTACATATAGATTTATATAT [XGTACX_site2662] | 8.72 ± 0.47
11 | AACAATATATTGAATAGTACATATATATAAACATAT [XGTACX_site2811] | 8.94 ± 0.44
12 | AAAATAAAATAACGTTGTACAACATCATTTCTATAT [XGTACX_site5080] | 8.71 ± 0.4
13 | TCTTTCTTATATTTATATAATTATATTTATTTTATA [GTGCAC_negctrl_site300] | 8.79 ± 0.53
14 | TTTAATTTGTTATACACACACAAAAAAAGTTATAAA [CACACA_site7779] | 8.97 ± 0.47
15 | GGAATACAGGAAAAAAGTACAGAAAATGGAATATTA [XGTACX_site5053] | 8.88 ± 0.57
16 | ATATAATGTTATAGAAGTACATGAAATACTTATTTA [XGTACX_site8850] | 8.65 ± 0.5
17 | CATATAAAAAGACACACACACACATATATATATATA [CACACA_site940] | 9.92 ± 0.31
18 | TTTTTTTTTCCCGTAAATATTGAGACAACCATAATG [CACACA_negctrl_site41] | 8.4 ± 0.4
19 | TTAAAAATATATATAACACACACATAATATATATAT [CACACA_site8811] | 9.32 ± 0.16
20 | TATTTTTATTTAGGACGTACAAAAATAAATCATATT [XGTACX_site1448] | 8.51 ± 0.44
21 | TATAAATATTACGGTAGTACTATACATATATATAAT [XGTACX_site7442] | 8.86 ± 0.36
22 | TCCTTATATTTGCACACACACACAAGAAAATGAAAA [CACACA_site6613] | 9.71 ± 0.28

Row | Sequence | gcPBM binding intensity (ln)
23 | TTAGAAACATTGAAAGCATGCAATATTACTTTATAC [TGCATGCA_site522] | 8.82 ± 0.28
24 | TATATAATATAATTGACATGCAACCATTTTCGTGAA [TGCATGCA_site458] | 8.66 ± 0.4
25 | TCATTCATATGTTACACACACACACGCACATAAAAA [CACACA_site7514] | 9.78 ± 0.22
26 | AAGTTGGAAAGGTTATGTACTTATTTTTTAAAATAA [XGTACX_site204] | 8.34 ± 0.44
27 | TAACCATACATACATACACACACACCCACATATATA [CACACA_site8951] | 9.95 ± 0.13
28 | ATAAAAAACTCAGAGCGTACATAATTTTTTCTATTT [XGTACX_site2803] | 8.66 ± 0.47
29 | TATATATTCAAATGTGCATGTAAAAAAAAAAAAAAG [TGCATGCA_site126] | 8.67 ± 0.55
30 | CAGGAGAGTAAAAGAGTGCGAATTATTATTTTGGAG | 8.77 ± 0.51
31 | AGACATTAATGAAGGTGTACATATATTTGACAGAAT [XGTACX_site655] | 9.13 ± 0.41
32 | TCCCTAGTATACCTTAGTACATATATTATTTTGCAC [XGTACX_site2174] | 9.09 ± 0.37
33 | GGCATATATATATGCACACATACATAAATACATGTG [CACACA_site5999] | 9.85 ± 0.41
34 | AAAATAATTATGAATTGTACAGGTTTTTTTTTTTTT [XGTACX_site220] | 8.59 ± 0.35
35 | GGAAAAAAAAAAAAAAAACACACGGTACATTCAAAC [CACACA_site2715] | 8.96 ± 0.47
36 | AAAAAATTTTTAAGCACACACATAGATAATATATAT [CACACA_site1555] | 9.14 ± 0.4
37 | TCTACAATTATAATTACACACTATAAAAAAGAAAGA [CACACA_site2984] | 8.69 ± 0.42
38 | ATTTTTTTTTTTTTTTTTTTTTTTTTTTGATTTGTG [CACACA_negctrl_site1391] | 8.51 ± 0.66
39 | AAAAATAGGAACCAATATCCAACGTGACTTTATAAT [CACACA_negctrl_site1011] | 8.95 ± 0.47
40 | TACAATCTAAAATACACACACACAAACATATATTTA [CACACA_site3702] | 9.85 ± 0.38
41 | AATAAATAAATATATACACACATATATATATAATAT [CACACA_site921] | 9.02 ± 0.41
42 | TGAAAAAATATAAAATATAAAATAAAAAATATAAAA [GTGCAC_negctrl_site536] | 8.6 ± 0.49
43 | AAGATATATATAGAAAGTACTTATATTTGTATAATT [XGTACX_site8855] | 8.74 ± 0.47
44 | ATATTAATATATATGTTTTATTACCATTTTATGTAT [CACACA_negctrl_site1761] | 8.86 ± 0.47
